Measurements: the supplement of paper PMC4967469
By IC50 is meant the dose at which the fit gives 50% viability; a limit (>, <) means that the fit lies beyond the doses tested. For AUC the same curve is integrated over the 256-fold range of doses and scaled to a fraction; values near 1 show little effect. For some assays here: The top dose, if marked as inferred, was calculated from the reported fits.

Columns and labels:
Test in all cases: Viability of human cancer cell lines after 72 h of drug (GDSC screen)
[1] = compound: C=CC(=O)Nc1cc(-n2c(=O)ccc3cnc4ccc(-c5ccc(NS(C)(=O)=O)cc5)cc4c32)ccc1C [BMX-IN-1 (QL-XII-61)]; conditions: top dose 10 µM; top dose inferred
Description: (§1)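 Human cancer cell lines in 384-well plates, medium with 10% serum, drug for 72 h over a 256-fold dose range (nine 2-fold or five 4-fold steps up to the top dose). Adherent lines were fixed and stained with the nucleic acid dye Syto60, suspension lines read with resazurin; signal relative to control wells, capped at 0 and 100%. One two-parameter sigmoid per drug and line, fitted in a mixed model over all curves with the slope shared within a line.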

[2] = compound: CCc1cc(-c2n[nH]c(C)c2-c2ccc3c(c2)OCCO3)c(O)cc1O [CCT018159]; conditions: top dose 10 µM; top dose inferred
Description: as §1

[3] = compound: CN(C)Cc1cccc(N=C(c2ccccc2)c2c(O)[nH]c3cc(C(=O)N(C)C)ccc23)c1 [BIX02189]; conditions: top dose 20 µM; top dose inferred
Description: as §1

[4] = compound: COC(=O)CNC(=O)C(=O)OC [Dimethyloxalylglycine]; conditions: top dose 4000 µM; top dose inferred
Description: as §1

[5] = compound: COc1cccc2c1C(=O)c1c(O)c3c(c(O)c1C2=O)C[C@@](O)(C(=O)CO)C[C@@H]3O[C@H]1C[C@H](N)[C@H](O)[C@H](C)O1 [Doxorubicin]; conditions: top dose 1.024 µM
Description: as §1

[6] = compound: COc1cccc2cc(-c3nc([C@H]4CC[C@H](C(=O)O)CC4)n4ncnc(N)c34)[nH]c12 [OSI-027]; conditions: top dose 20 µM
Description: as §1

[7] = compound: CS(=O)(=O)c1ccc(C(=O)Nc2ccc(Cl)c(-c3ccccn3)c2)c(Cl)c1 [Vismodegib]; conditions: top dose 10 µM; top dose inferred
Description: as §1

[8] = compound: Cc1cnc(Nc2ccc(F)cc2Cl)nc1-c1c[nH]c(C(=O)N[C@H](CO)c2cccc(Cl)c2)c1 [VX-11e]; conditions: top dose 5.12 µM; top dose inferred
Description: as §1

[9] = compound: Cc1cnc(Nc2ccc(OCCN3CCCC3)cc2)nc1Nc1cccc(S(=O)(=O)NC(C)(C)C)c1 [TG101348]; conditions: top dose 10.24 µM
Description: as §1

[10] = compound: O=C(c1ccc(C(=O)N2CCC(N3CCCC3)CC2)c(Nc2ccccc2)c1)N1CCC(N2CCCC2)CC1 [UNC1215]; conditions: top dose 1 µM; top dose inferred
Description: as §1

[11] = compound: C=CCNC1=C2C[C@@H](C)C[C@H](OC)[C@H](O)[C@@H](C)/C=C(\C)[C@H](OC(N)=O)[C@@H](OC)/C=C\C=C(/C)C(=O)NC(=CC1=O)C2=O [17-AAG]; conditions: top dose 1 µM
Description: as §1

| Cell Line | AUC [1] | IC50 [1] [µM] | AUC [2] | IC50 [2] [µM] | AUC [3] | IC50 [3] [µM] | AUC [4] | IC50 [4] [µM] | AUC [5] | IC50 [5] [µM] | AUC [6] | IC50 [6] [µM] | AUC [7] | IC50 [7] [µM] | AUC [8] | IC50 [8] [µM] | AUC [9] | IC50 [9] [µM] | AUC [10] | IC50 [10] [µM] | AUC [11] | IC50 [11] [µM] |
| --- | --- | --- | --- | --- | --- | --- | --- | --- | --- | --- | --- | --- | --- | --- | --- | --- | --- | --- | --- | --- | --- | --- |
| PL-21 (acute myeloid leukaemia, suspension) | 0.98 | > 10 | 0.861 | > 10 | 0.799 | 11.5 | 0.46 | 191 | 0.784 | 0.514 | 0.189 | 0.122 | 0.973 | > 10 | 0.772 | 2.31 | 0.625 | 1.51 | 0.968 | > 1 |  |  |
| RS4-11 (leukaemia, suspension) | 0.846 | 6.38 | 0.883 | 9.12 | 0.866 | 15.3 | 0.195 | 34.5 | 0.321 | 0.0213 | 0.087 | < 0.0781 |  |  | 0.924 | > 5.12 | 0.476 | 0.555 | 0.987 | > 1 | 0.941 | > 1 |
| SCC-15 (head and neck, adherent) | 0.971 | > 10 | 0.861 | > 10 | 0.964 | > 20 | 0.69 |  | 0.656 | 0.202 | 0.569 | 2.05 |  |  | 0.958 | > 5.12 | 0.897 | > 10.2 | 0.956 | > 1 | 0.85 | > 1 |
| SK-CO-1 (large intestine, adherent) | 0.953 | > 10 | 0.954 | > 10 | 0.956 | > 20 | 0.855 | 2890 | 0.638 | 0.15 | 0.989 | > 20 |  |  | 0.529 | 0.382 | 0.925 | > 10.2 | 0.982 | > 1 | 0.51 | 0.0665 |
| SK-LU-1 (lung adenocarcinoma, adherent) | 0.936 | > 10 | 0.879 | > 10 | 0.891 | > 20 | 0.345 | 82.3 | 0.323 | 0.0178 | 0.57 | 2.05 |  |  | 0.956 | > 5.12 | 0.811 | 7.33 | 0.978 | > 1 | 0.46 | 0.0472 |
| SK-N-DZ (neuroblastoma, adherent) | 0.982 | > 10 | 0.855 | 7.79 | 0.983 | > 20 | 0.745 | 1250 | 0.878 | 1.02 | 0.912 | > 20 | 0.98 | > 10 | 0.985 | > 5.12 | 0.909 | > 10.2 | 0.987 | > 1 |  |  |
| SU-DHL-8 (B-cell lymphoma, suspension) | 0.917 | > 10 | 0.95 | > 10 | 0.9 | > 20 | 0.401 | 137 | 0.35 | 0.0254 | 0.112 | 0.0785 |  |  | 0.728 | 1.35 | 0.639 | 1.5 | 0.987 | > 1 | 0.98 | > 1 |
| TC-71 (Ewing sarcoma, adherent) | 0.652 | 1.52 | 0.899 | 8.9 | 0.931 | > 20 | 0.891 | 3290 | 0.903 | 0.948 | 0.239 | 0.261 |  |  | 0.927 | > 5.12 | 0.776 | 3.39 | 0.991 | > 1 | 0.751 | 0.282 |
| TE-10 (oesophagus, adherent) | 0.926 | > 10 | 0.92 | > 10 | 0.972 | > 20 | 0.642 | 612 | 0.614 | 0.131 | 0.806 | 9.94 |  |  | 0.966 | > 5.12 | 0.889 | > 10.2 | 0.986 | > 1 | 0.765 | 0.36 |
| VMRC-MELG (melanoma, adherent) | 0.976 | > 10 | 0.977 | > 10 | 0.946 | > 20 | 0.593 | 457 | 0.849 | 0.821 | 0.986 | > 20 | 0.989 | > 10 | 0.988 | > 5.12 | 0.956 | > 10.2 | 0.988 | > 1 |  |  |
| WM278 (melanoma, adherent) | 0.975 | > 10 | 0.86 | > 10 | 0.939 | > 20 | 0.442 | 170 | 0.696 | 0.246 | 0.974 | > 20 | 0.965 | > 10 | 0.694 | 1.21 | 0.984 | > 10.2 | 0.968 | > 1 |  |  |
| no-10 (glioma, adherent) | 0.784 | 5.28 | 0.975 | > 10 | 0.978 | > 20 | 0.646 | 699 | 0.64 | 0.17 | 0.635 | 3.23 | 0.958 | > 10 | 0.972 | > 5.12 | 0.934 | > 10.2 | 0.98 | > 1 |  |  |
